# Assay results from ChEMBL document CHEMBL3632587, “Discovery of a Specific Inhibitor of Pyomelanin Synthesis in Legionella pneumophila” (J Med Chem, 2015).
# Activity calls are given as the source filed them. No cut-off for these calls is given here.
# Tests used:
# Legionella pneumophila [1] = test: Inhibition of pyomelanin production in Legionella pneumophila 130b at <= 10 uM after 24 hrs
# Legionella pneumophila [2] = test: Inhibition of pyomelanin production in Legionella pneumophila 130b at 5 uM after 24 hrs
# Legionella pneumophila [3] = test: Inhibition of pyomelanin production in Legionella pneumophila 130b at 0.1 to 40 uM after 24 hrs
Structure (SMILES),inhibition (Legionella pneumophila [1]),inhibition (Legionella pneumophila [2]),inhibition (Legionella pneumophila [3])
c1ccc2c(c1)CSc1sccc1C2n1ccnc1 (stereo not drawn),Active,Active,
O=C(O)c1cc([N+](=O)[O-])cc2c1-c1ccc([N+](=O)[O-])cc1/C2=N/O,,,inactive
